# Data reported in PubChem BioAssay AID624170 (National Center for Advancing Translational Sciences (NCATS), 2012).
# The campaign covered roughly 410,000 compounds. About 850 (0.21%) were called active. The inconclusive results got no clear call from the source; some entries with a clear call stand among them for comparison. The call rests on the fitted dose curve; in most records, active means well fitted inhibition curve with a large enough effect; inconclusive means small, poorly fitted or top-dose-only effect, or another doubt; inactive means no such curve, though single readings can be large or run the other way. No potency is given beside an inconclusive call; the fits are too rough.
# Biological target: Glutaminase kidney isoform, mitochondrial (Homo sapiens) (UniProt O94925)
# Chain of UniProt O94925 (O94925 whole entry, looked up, canonical isoform): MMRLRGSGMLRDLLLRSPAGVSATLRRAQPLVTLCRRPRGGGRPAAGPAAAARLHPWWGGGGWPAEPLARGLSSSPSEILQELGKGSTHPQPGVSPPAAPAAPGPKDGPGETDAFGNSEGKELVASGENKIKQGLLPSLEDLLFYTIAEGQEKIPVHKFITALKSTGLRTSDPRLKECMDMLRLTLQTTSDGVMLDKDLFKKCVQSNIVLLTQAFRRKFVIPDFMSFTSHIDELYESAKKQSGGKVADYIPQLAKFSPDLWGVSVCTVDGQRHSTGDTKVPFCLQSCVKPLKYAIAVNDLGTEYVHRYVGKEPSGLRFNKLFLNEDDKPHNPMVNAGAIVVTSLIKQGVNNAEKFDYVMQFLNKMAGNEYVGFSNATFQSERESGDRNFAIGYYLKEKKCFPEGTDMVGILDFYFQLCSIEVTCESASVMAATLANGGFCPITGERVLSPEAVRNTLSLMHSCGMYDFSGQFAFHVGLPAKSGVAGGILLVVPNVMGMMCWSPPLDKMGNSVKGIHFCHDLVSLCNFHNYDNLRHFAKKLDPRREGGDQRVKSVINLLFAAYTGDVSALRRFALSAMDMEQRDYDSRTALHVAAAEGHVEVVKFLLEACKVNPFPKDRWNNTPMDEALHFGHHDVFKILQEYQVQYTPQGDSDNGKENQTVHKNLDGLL
# Assay: qHTS for Inhibitors of Glutaminase (GLS)
# Details: GLS enzymatic activity, qHTS titration; series mostly up to 45.5 µM; activity change, negative = inhibition: at the top concentration
# Procedure, shortened: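 Human kidney-isoform GLS in 45 mM KH2PO4 pH 8.2, 0.02% Tween-20, with compound, started with 1mM L-Glutamine (added stock). Glutamate oxidase/HRP/Amplex red coupled fluorescence read at start and after 30 min at RT.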
# On the % scale 0 is the no-effect control and ±100 the full control effect; potency means the concentration at half of the fitted maximal effect; tags describe the fitted curve by direction and shape.
Structure (SMILES),Potency,"activity change, negative = inhibition"
CCc1nc(SCC(=O)NNC(=O)c2ccc(OC)cc2)c2ccccc2n1,active: 8.91 µM,
O=C(N/N=C/c1sc2ccccc2c1O)c1cccc2ccccc12,"inconclusive [inhibitor, single point]",
O=C(Cc1cccs1)NCC1CCCO1 (stereo unspecified),"inconclusive [inhibitor, single point]",
O=C(NC(c1ccc(F)cc1)c1ccc2ccccc2n1)C1CCN(Cc2ccc3ccccc3n2)CC1 (stereo unspecified),"inconclusive [inhibitor, single point]",
CCCN(CC(=O)Nc1ccccc1C)C(=O)/C=C/c1ccc(OC)c(OC)c1,,inactive: -1.73%
CCn1c(=S)[nH]c2sc3c(c2c1=O)CCCC3,"inconclusive [inhibitor, single point]",
Cc1nc(NC(=O)C(C)(C)C)sc1-c1nc(N)sc1-n1cc(-c2ccccc2)nn1,"inconclusive [inhibitor, single point]",
O=C(/C=C/c1ccco1)N(Cc1ccc(Cl)cc1)C1CCS(=O)(=O)C1 (stereo unspecified),,inactive: -6.21%
Cc1ccc(NC(=O)Cn2c(=O)oc3ccccc32)cc1C,inactive,
CC1ON=C(c2ccccn2)N(Cc2ccc(S(C)(=O)=O)cc2)C1=O (stereo unspecified),"inconclusive [inhibitor, partial curve, poor fit]",
CCOc1ccccc1NC(=O)Cn1c(=O)n(Cc2ccco2)c(=O)c2ccc(C(=O)NC3CCCC3)cc21,,inactive: -7.69%
COc1ccc(/C=N\NC(=O)c2ccccc2Br)cc1COc1ccc(F)cc1,,inactive: -3.23%
Fc1ccccc1Nc1nc(Cl)nc(Cl)n1,"inconclusive [inhibitor, single point]",
O=C(NNC(=O)c1ccccc1F)c1cccc(-n2cccc2)c1,"inconclusive [inhibitor, single point]",
Cc1nc(CCN2C(=O)c3ccccc3C2=O)n[nH]1,"inconclusive [inhibitor, single point]",
CC(C)Cn1c(C23CC4CC(CC(C4)C2)C3)n[nH]c1=S,"inconclusive [inhibitor, single point]",
O=C1C(=O)N(CCN2CCOCC2)C(c2ccccn2)/C1=C(/O)c1ccc(F)cc1 (stereo unspecified),"inconclusive [inhibitor, single point]",
CC(/C=N/N1C(=O)CSC1=S)=C\c1ccccc1,"inconclusive [inhibitor, single point]",
Cc1cccc(NC(c2ccccc2C)c2ccc3ccc(C)nc3c2O)n1 (stereo unspecified),,inactive: 34%
Cc1oc(-c2cccs2)nc1CS(=O)CC(=O)NC1CCCCCC1 (stereo unspecified),,inactive: 0.317%
O=C(CSc1n[nH]c(-c2ccccc2)n1)Nc1ncccn1,"inconclusive [inhibitor, partial curve]",
CCCCCCCCCC[N+](C)(C)CC/C=C1/c2ccccc2Sc2ccc(Cl)cc21,"inconclusive [inhibitor, single point]",
CCN1/C(=C/c2ccc3ccccc3[n+]2CC)C=Cc2ccccc21,,inactive: 10.6%

Structure (SMILES),Potency,"activity change, negative = inhibition"
O=S(=O)(NCc1cc(-c2ccccc2Cl)no1)c1ccc(Cl)cc1,"inconclusive [inhibitor, single point]",
O=C(CSc1nc2ccccc2s1)NNC(=S)Nc1ccc(Cl)cc1,"inconclusive [inhibitor, single point]",
CNC(=O)c1cccn1-c1ccsc1C(=O)OC,"inconclusive [inhibitor, single point]",
COc1ccccc1OCc1nc(-c2cccc([N+](=O)[O-])c2)no1,"inconclusive [inhibitor, single point]",
C=CC1=C(C(=O)O)N2C(=O)[C@@H](NC(=O)/C(=N\OCC(=O)O)c3csc(N)n3)[C@H]2SC1,active: 12.6 µM,
C=CC1=C(C(=O)O)N2C(=O)[C@@H](NC(=O)C(N=O)c3csc(N)n3)[C@H]2SC1 (stereo partly specified),"inconclusive [inhibitor, single point]",
CCc1ccccc1NC(=O)Cn1c(=O)n(Cc2ccco2)c(=O)c2sc3ccccc3c21,,inactive: 1.48%
CCOC(=O)C1(C)NC(c2ccccc2F)C2C(=O)N(c3cccc(C(C)=O)c3)C(=O)C21 (stereo unspecified),"inconclusive [inhibitor, single point]",
CCNC(=O)NC(=O)COC(=O)c1ccccc1SCC(=O)NC(=O)NCC,"inconclusive [inhibitor, single point]",
O=[N+]([O-])c1cc([N+](=O)[O-])c2cccnc2c1Oc1ccccc1O,"inconclusive [inhibitor, single point]",
CCOC(=O)/C(C#N)=C\c1cc(OC)c(OC)cc1[N+](=O)[O-],"inconclusive [inhibitor, single point]",
Cc1ccc(N2C(=O)[C@@H]3[C@H](C2=O)[C@H]2C=CC=NN2[C@@H]3C(=O)Nc2ccc(Cl)cc2)cc1,,inactive: -9.04%
NNC(=O)c1oc2nc(-c3ccccc3)cc(-c3ccccc3)c2c1N,"inconclusive [inhibitor, partial curve]",
CCOC(=O)c1c(O)c(O)c(C(=O)OCC)n1-c1ccccc1,,inactive: -25.5%
COc1ccc(Br)cc1/C=N/N1C(=O)CSC1=S,active: 20 µM,
CCN(CC)c1ccc2cc(-c3nc4ccccc4[nH]3)c(=O)oc2c1,"inconclusive [inhibitor, partial curve]",
O=C1CC(/C=C/c2ccco2)=Nc2ccccc2N1,"inconclusive [inhibitor, single point]",
Cc1onc(-c2ccccc2)c1C(=O)N1CCCC(C)(C(=O)NS(=O)(=O)C2CC2)C1 (stereo unspecified),,inactive: 9.32%
O=C(NN1C(=O)/C(=C/C=C/c2ccco2)SC1=S)c1ccncc1,active: 7.94 µM,
O=C(O)c1cccc(NC(=S)N/N=C/c2ccccn2)c1,,inactive: 21.8%
COc1ccc(-c2ccc(=O)n(Cc3cccc([N+](=O)[O-])c3)n2)cc1,,inactive: 13.1%
CCOC(=O)c1c(NC(=S)NCC2CCCO2)sc(C)c1C (stereo unspecified),"inconclusive [inhibitor, single point]",
O=C(Nc1cnc(N2CCC(N3CCCCC3)CC2)c(C(=O)O)c1)c1ccc(Br)cc1,"inconclusive [inhibitor, single point]",
